# In PubChem BioAssay AID1347073 (National Center for Advancing Translational Sciences (NCATS), 2019):
# The whole screen tested about 45,000 compounds, of which about 200 (0.44%) were called active. Roughly 7% stayed inconclusive and do not appear here. Calls come from the whole dose curve; as a rule, active = well fitted activation curve with a large enough effect; inconclusive = small, poorly fitted or top-dose-only effect; inactive = no such curve, though single readings can be large or run the other way. The list shows a part of the results.
# Assay: qHTS of TDP-43 Inhibitors: NCGC Sytravon Library Screen; note: nearly all actives have a fitted effect of over 55% in size; for growth rescue (activation): 0% is about no effect
# Settings: yeast TDP-43 toxicity rescue, BacTiter-Glo growth, 24 h; series mostly up to 46.1 µM; growth rescue (activation): at the top concentration
# Summary of the method: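 TDP-43-expressing yeast, pregrown in raffinose, seeded at OD600 0.02 in galactose medium with compound for 24 hr at 30 deg C. Growth read by BacTiter-Glo luminescence, so rescue of toxicity appears as activation.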
# Potency is the fitted concentration of half-maximal effect.
SMILES,growth rescue (activation),Potency
O=C(O)CSc1ncccn1,inactive: -12.8%,–
CC(C)c1ccc(N(CC(=O)N2CCOCC2)S(C)(=O)=O)cc1,inactive: -9.56%,–
COCCN1C(=O)C(=O)/C(=C(/O)c2ccc(S(=O)(=O)N3CCOCC3)cc2)C1c1ccc(O)cc1 (centres undefined),inactive: 17.5%,–
O=S1(=O)N=C(N/N=C/C=C/c2ccccc2)c2ccccc21,inactive: 23.1%,–
Cn1c(COc2ccccc2)nnc1SCC(=O)Nc1nnc(C2CC2)s1,inactive: 2.62%,–
O=[N+]([O-])c1ccc(N2CCN(c3cccc(Cl)c3)CC2)cn1,inactive: 19%,–
CCc1ccc(NC(=O)C(=O)NNC(=O)c2ccc(OC)cc2)cc1,inactive: 15.9%,–
CCc1cccc(NC(=O)CCCn2c(=O)[nH]c3ccsc3c2=O)c1,inactive: 11.9%,–
O=C(COC(=O)c1ccncc1)Nc1ccc2c(c1)OCO2,inactive: 5.9%,–
COc1ccc(CC(N)c2csc(Nc3ncccn3)n2)cc1 (centres undefined),inactive: 2.47%,–
COc1cccc(C2Nc3cccc4cccc(c34)N2)c1,inactive: 12%,–
COc1cc(OC)c2nc(C)c3c(c2c1)N(c1ccc(O)cc1)CC3,inactive: 18%,–
Cc1nc(NCc2cccnc2)c2c3c(sc2n1)CCCC3,inactive: -3.4%,–
CCOc1ccc(N=Cc2c(C)[nH]n(-c3nc4ccccc4[nH]3)c2=O)cc1,inactive: -55%,–
CN(C)S(=O)(=O)c1ccc(C(=O)/C=C/c2cccnc2)cc1,inactive: 4.97%,–
COc1ccc(C(=O)NCCNC(=O)c2cnccn2)cc1OC,inactive: 9.95%,–
O=C(CN1N=C(c2ccc(Cl)cc2)CCC1=O)NCCN1CCc2ccccc2C1,inactive: 18%,–
O=C(c1ccccc1)N1N=C(c2ccccc2)CC1c1ccccc1[N+](=O)[O-] (centres undefined),inactive: 2.53%,–
CCOC(=O)c1sc(NC(=S)NC(=O)c2ccccc2)c(C(=O)OCC)c1C,inactive: 1%,–
CN1CCN(C(=O)/C(=C\c2cccs2)NC(=O)c2ccccc2)CC1,inactive: -13.6%,–
COC(=O)C1CCN(C(=O)COC(=O)[C@@H]2CC(O)CN2S(=O)(=O)c2ccc3c(c2)OCCO3)CC1 (some centres undefined),inactive: 31.1%,–
CCc1nn2c(=O)c(S(=O)(=O)Nc3cccc(F)c3)c(C)nc2s1,inactive: 12.7%,–
Cc1ccc(C)c(Cn2cnc3c(oc4ccccc43)c2=O)c1,inactive: 8.83%,–

SMILES,growth rescue (activation),Potency
COc1cc(CO)ccc1OCC(=O)Nc1cccc2ccccc12,inactive: 18.9%,–
COc1ccc(CNC(=S)NNC(=O)c2cc3ccccc3o2)cc1,inactive: 11.6%,–
CCOc1ccc(Cl)cc1S(=O)(=O)N1CCC(C(=O)NCc2ccncc2)CC1,inactive: 10.6%,–
CN(C)S(=O)(=O)c1cccc(COc2ncnc3c(Cl)cc(Cl)cc23)c1,inactive: -7.84%,–
Cc1nnc(Nc2ccc(Cl)c(C(F)(F)F)c2)[nH]c1=O,inactive: -22.2%,–
O=C(Nc1ccc(Cl)cc1)Nc1ccc(N2CCCC2)c(S(=O)(=O)Nc2ccccc2Cl)c1,inactive: 8.63%,–
COc1cc(C(=O)Nc2cc(C)ccc2C)ccc1OCc1c(C)noc1C,inactive: -11.7%,–
COc1cccc(C(=O)OC2CCN(C)CC2)c1,inactive: -5.06%,–
COc1ccc(-c2nc3ncccc3o2)cc1NC(=O)c1cccs1,inactive: 6.08%,–
Cc1ccc(-n2[nH]c(C)c(/C=N/N3C(=O)c4cccc5cccc(c45)C3=O)c2=O)cc1,inactive: 8.85%,–
COc1cc(C)ccc1OCCOCCOc1cccc2ccc(C)nc12,inactive: 12.2%,–
COc1ccc(CCNCC2C(Oc3ccc(Cl)cc3)C(=O)N2c2ccccc2C)cc1OC (centres undefined),inactive: 19.4%,–
Cc1ccc(NC(=O)Cc2nnc(N)s2)cc1,inactive: 3.89%,–
CCn1c(SCC(=O)Nc2cc(C)on2)nnc1-c1cccc(C)c1,inactive: 11%,–
CCn1c(CCC(=O)O)nc2cc(S(=O)(=O)N(C)C)ccc21,inactive: 0.61%,–
COc1cccc(N(CC(=O)NC2CCCCC2)C(=O)CCC(=O)Nc2nc(C)cs2)c1,inactive: -1.48%,–
CCOC(=O)c1ccc(S(=O)(=O)N2CC(=O)Nc3ccccc32)cc1,inactive: 7.27%,–
O=C(O)C1CCN(S(=O)(=O)c2ccc3c(c2)OCCCO3)CC1,inactive: -7.53%,–
COC(=O)CCN(C(=O)c1ccc(N2CCCC2)c([N+](=O)[O-])c1)c1ccccn1,inactive: 10.9%,–
CCCOc1ccc(Cc2c(Cl)nc(SC)nc2N(C)C)cc1,inactive: 17%,–
CCN1C(=O)c2ccc(C(=O)Nc3ccc(O)cc3C)cc2C1=O,inactive: -19.9%,–
CC(Cc1c[nH]c2ccccc12)C(=O)NCc1ccco1 (centres undefined),inactive: -6.61%,–
S=c1[nH]cc(-c2ccccc2)n1-c1cccc(Cl)c1,inactive: 7.5%,–

SMILES,growth rescue (activation),Potency
CCCn1cc2c(c1-c1cccc(C)c1)c(=O)n(C)c(=O)n2C,inactive: -9.02%,–
NC(=O)NC(Cc1ccccc1)C(=O)NCCCSc1ccccc1 (centres undefined),inactive: -1%,–
O=C(Oc1cccc2ccccc12)c1cc(Cl)nc2ccccc12,inactive: 0.802%,–
COc1cccc(NC(=O)Cn2c(=O)n(CC(=O)NCCc3ccccc3)c(=O)c3sccc32)c1,inactive: -5.29%,–
O=C(NCC1CCCO1)c1ccccc1-c1nc(-c2ccccc2Cl)no1 (centres undefined),inactive: 19.2%,–
Cc1cc(N2CCOCC2)nc2ccc(NC(=O)CCC(=O)N3CCN(c4cccc(C(F)(F)F)c4)CC3)cc12,inactive: -0.989%,–
COc1ccc(Nc2nc3c(C)cccc3cc2C#N)c(OC)c1,inactive: 13.4%,–
O=C(COC(=O)C1(c2ccccc2F)CCCC1)N1CCc2ccccc21,inactive: 6.21%,–
CC(C1CC2CCC1C2)n1c(-c2cccs2)n[nH]c1=S (centres undefined),–,active: 14.1 µM
CC12CCC(C(=O)Nc3cccc(Cl)c3Cl)([C@H](Br)C1=O)C2(C)C (some centres undefined),inactive: 7.55%,–
C/C(=N\NC(=O)C1CCCN(S(=O)(=O)c2ccccc2)C1)c1cccnc1 (centres undefined),inactive: -0.15%,–
O=C(CCN1C(=O)c2cccc3cccc(c23)C1=O)N1CCN(c2ccccc2F)CC1,inactive: -16.6%,–
CC(C)c1onc(C(=O)N2CCCCCC2)c1[N+](=O)[O-],inactive: 13%,–
O=[N+]([O-])c1cccc(/C=N/n2cnnc2)c1,inactive: 7.1%,–
O=C(NC(=S)Nc1ccc2oc(-c3ccncc3)nc2c1)c1ccccc1F,inactive: -23.5%,–
O=C(CSc1nc2[nH]c(=O)cc(O)c2s1)Nc1nncs1,inactive: -2.5%,–
Cc1ccc(CNC(=O)C2CCN(C(=O)c3cnn(-c4ccccc4)c3-n3cccc3)CC2)cc1,inactive: 0.569%,–
CCOCc1nnc(NC(=O)C2CC(=O)N(CCc3ccc(F)cc3)C2)s1 (centres undefined),inactive: 7.09%,–
CC(=O)NC(c1ccc(F)c(F)c1)c1nc(-c2cccs2)cs1 (centres undefined),inactive: 22.5%,–
CC(CN1CCCCC1)OC(=O)c1ccc(Cl)cc1 (centres undefined),inactive: -12.5%,–
O=C(CCNC(=O)c1ccccc1Cl)NN=Cc1ccccc1[N+](=O)[O-],inactive: -8.33%,–
Cc1cccc(OCC(=O)NCCCNC(=O)c2cccnc2)c1,inactive: -2.76%,–
CCCn1c(N)c(N2CCCCC2)c(=O)n(CC(=O)Nc2ccc(C(C)=O)cc2)c1=O,inactive: 20.5%,–
